Data published in PubChem BioAssay AID1468 (National Center for Advancing Translational Sciences (NCATS), 2008).
In all, about 280,000 compounds went through this assay and about 1,100 (0.39%) were called active. The shares of active, inactive and inconclusive entries below differ from those in the screen. Calls follow the shape of the dose curve; as a rule, active = well fitted inhibition curve with a large enough effect; inconclusive = small, poorly fitted or top-dose-only effect, or effect the other way; inactive = flat fitted curve, though single readings scatter. Where the call is inconclusive, the potency comes from a doubtful curve fit.

molecular target: Microtubule-associated protein tau (Homo sapiens) (UniProt P10636); experiment: qHTS for Inhibitors of Tau Fibril Formation, Fluorescence Polarization; conditions: K18 P301L tau heparin fibrillization, Alexa594 FP, 6 h; series mostly up to 57.7 µM; also: nearly all actives have a fitted effect of over 55% in size
Method in brief: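 Human K18 P301L fragment (15 uM unlabeled plus 0.24 uM Alexa 594-labeled) in 100 mM sodium acetate pH 7 with compound, aggregation induced by 20 uM heparin for 6 hr at 37 C. ThT (30 uM) added for 1 hr, then Alexa 594 FP read.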
% is scaled to controls: 0 for no effect and ±100 for the full control effect; potency is read from the fitted curve at half-maximal effect; tags tell the direction and shape of the fitted curve.

Chain of UniProt P10636 (P10636 whole entry, looked up, the tested form may be a part): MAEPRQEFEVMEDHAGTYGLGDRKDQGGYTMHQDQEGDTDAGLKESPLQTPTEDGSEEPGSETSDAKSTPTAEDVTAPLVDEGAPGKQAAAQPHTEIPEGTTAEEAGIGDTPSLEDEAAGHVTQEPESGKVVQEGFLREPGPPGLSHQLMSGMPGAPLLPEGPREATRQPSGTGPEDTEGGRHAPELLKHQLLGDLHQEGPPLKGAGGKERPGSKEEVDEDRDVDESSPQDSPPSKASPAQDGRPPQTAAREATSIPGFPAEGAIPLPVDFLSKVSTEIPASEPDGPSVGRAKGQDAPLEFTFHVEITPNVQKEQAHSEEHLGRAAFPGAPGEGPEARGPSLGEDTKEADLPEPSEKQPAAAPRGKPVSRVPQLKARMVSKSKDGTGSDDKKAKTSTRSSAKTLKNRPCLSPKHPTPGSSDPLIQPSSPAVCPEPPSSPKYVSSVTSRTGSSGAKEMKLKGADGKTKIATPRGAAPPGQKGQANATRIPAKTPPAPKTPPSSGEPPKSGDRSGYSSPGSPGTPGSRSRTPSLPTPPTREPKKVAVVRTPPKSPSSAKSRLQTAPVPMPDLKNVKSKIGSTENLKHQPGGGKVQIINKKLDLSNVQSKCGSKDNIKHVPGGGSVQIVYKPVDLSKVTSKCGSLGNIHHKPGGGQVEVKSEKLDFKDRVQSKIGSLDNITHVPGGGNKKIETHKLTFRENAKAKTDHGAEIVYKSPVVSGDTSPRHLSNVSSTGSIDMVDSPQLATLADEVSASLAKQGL

Potency, inconclusive:
Cc1ccc(SCC(=O)Nc2ccc3oc(-c4cccc(C)c4)nc3c2)cc1 3.16 µM [inhibitor, partial curve], N#CC1=C(N)C(C#N)(C#N)[C@H](c2ccoc2)[C@H]2CN(Cc3ccccc3)CC=C12 25.1 µM [inhibitor, single point], O=C(Nc1ccc2c(c1)N(C1CCCC1)C(=O)c1ccccc1S2)c1ccccc1 2 µM [inhibitor, partial curve], CN(C)CCCOC(=O)c1sc2ccccc2c1Cl 31.6 µM [activator, single point], Cc1noc(/C=C/N(C)C)c1S(=O)(=O)N1CCCC(C(=O)NCc2ccco2)C1 (centres undefined) 39.8 µM [inhibitor, single point], O=C(NCCC1=CCCCC1)c1ccc2c(c1)N(Cc1ccccc1)C(=O)c1ccccc1S2(=O)=O 12.6 µM [inhibitor, partial curve], CCN1C(=O)CC(C(=O)Nc2ccc(OC)cc2)SC1=Nc1ccc(C)c(C)c1 (centres undefined) 28.2 µM [inhibitor, single point], CC(=O)Nc1ccc(S(=O)(=O)N2CCN(CCCOc3cc(C)ccc3C)CC2)cc1 14.1 µM [inhibitor, partial curve], Cc1ccc(C(=O)NC(=C(Cl)Cl)S(=O)(=O)c2ccc(Cl)cc2)cc1 28.2 µM [inhibitor, partial curve], CCOC(=O)N1CCN(S(=O)(=O)c2cc(Cl)ccc2Cl)CC1 3.55 µM [activator, single point], Cc1ccc(Cn2c(=O)c3ccccc3n3c(-c4ccccc4)nnc23)cc1 3.16 µM [activator, full curve, poor fit], COc1ccc(C2CC(=O)N3CN(C4CCCCC4)CSC3=C2C#N)cc1 (centres undefined) 14.1 µM [inhibitor, partial curve], COC(=O)c1ccc(NC(=S)NCCc2ccccc2C)cc1 22.4 µM [inhibitor, partial curve], NC(=O)CC(NC(=O)Cc1ccc(Br)cc1)c1ccc(NCc2ccc(F)c(F)c2)c([N+](=O)[O-])c1 (centres undefined) 28.2 µM [inhibitor, single point], CCc1ccc(NC(=O)c2ccc(F)c(S(=O)(=O)N3CCN(c4cc(C)ccc4C)CC3)c2)cc1 39.8 µM [inhibitor, single point], O=C(COC(=O)c1ncc(Cl)c(Cl)c1Cl)NC(=O)NCc1ccccc1 25.1 µM [inhibitor, partial curve], COc1ccc(/C=C/C(=O)OCC(=O)Nc2ccc(Cl)c(S(=O)(=O)N(C)C)c2)cc1OC 3.98 µM [inhibitor, full curve], CC(C)c1ccc(NC(=O)C(Cc2ccccc2)NS(=O)(=O)c2ccc3c(c2)oc(=O)n3C)cc1 (centres undefined) 12.6 µM [inhibitor, partial curve], CC1=NN(c2ccccc2)C(=O)/C1=C\c1ccc(Oc2ccc([N+](=O)[O-])cc2[N+](=O)[O-])cc1 14.1 µM [inhibitor, partial curve], C=CCn1c(SCC(=O)/C(C#N)=C(\C)N)nc2sc(CC)cc2c1=O 12.6 µM [inhibitor, partial curve], COc1ccc(OC)c(NC(=O)Cc2coc3ccc(C)cc23)c1 39.8 µM [activator, single point], O=C1CSC(=S)N1N1C(=O)c2cccc([N+](=O)[O-])c2C1=O 7.94 µM [inhibitor, partial curve], C=CCNC(=O)CCCC(=O)NCC=C 31.6 µM [inhibitor, single point], CC(=O)c1cccc(Nc2nc(-c3ccccc3Cl)nc3ccccc23)c1 6.31 µM [inhibitor, full curve], O=C(OCc1ccccc1)C1=[N+]([O-])OC(C(=O)OCc2ccccc2)C1c1c[nH]c2ccccc12 (centres undefined) 11.2 µM [inhibitor, partial curve], COc1cccc(-c2ccc(C#N)c(OC(=O)c3c(Cl)cccc3Cl)n2)c1 31.6 µM [inhibitor, partial curve], CCN(Cc1ccccc1)C(=O)CCS(=O)(=O)c1ccc2c(c1)CCN2C(C)=O 44.7 µM [inhibitor, single point]

Potency, active:
O=C(Nc1cccnc1)c1cn(-c2ccccc2)nc1-c1cccs1 28.2 µM

Potency, inactive:
COc1ccc(C2N(c3ccccc3)CCN2c2ccccc2)cc1O, CCCc1[nH][nH]c(=O)c1C(c1ccc(Cl)cc1)C(C#N)C#N (centres undefined), Cc1ccc(-c2cc(C(=O)Nc3ccccn3)c3ccccc3n2)o1, Cc1cc([N+](=O)[O-])nn1CC(=O)Nc1c(C)n(C)n(-c2ccccc2)c1=O, CCc1ccc(CN/C=C/C(=O)c2ccc(Br)cc2)cc1, c1cc(C2CCN(Cc3nc(-c4ccc5c(c4)OCO5)no3)CC2)ccn1, CCc1c(C)c(C#N)c2nc3ccccc3n2c1Nc1cccc(C(F)(F)F)c1, COc1ccc(-c2nc(S(=O)(=O)c3ccc(C)cc3)c(NCc3ccccc3)o2)cc1, O=C(CSc1nnc(-c2ccccc2)c(-c2ccccc2)n1)NCc1ccco1, CCCCCCC1CC(CCc2nc(=S)[nH][nH]2)C(=O)O1 (centres undefined), O=C(NCCCl)C1Cc2c(ccc3ccccc23)O1 (centres undefined), CCCCCc1nnc(NC(=O)Cc2cccs2)s1, CC(=O)c1cc2c(cc1N/C(=N/S(=O)(=O)c1ccc(F)cc1)c1ccccc1)OCO2, Cc1ccnc(SCC(N)=O)n1, Cn1c(O)c(N=NC(=O)c2ccco2)c2ccccc21

activity, negative = inhibition, inactive:
COC(=O)C/C=C\[C@@H](C)[C@@H](/C=N\OC[C@@H](C)[C@H](OCc1ccccc1)C(C)C)OC -3.39% [at 11.6 µM]
